Experimental data as given in the supplement of paper PMC8728848.
The other results are listed elsewhere or left out.

How the values were obtained:
Experiment in all cases: glycan array binding signal (z-score within array); higher = stronger binding
Settings in all cases: glycan notation: IUPAC condensed, linker removed
[1] = target: Neu5Ac(a2-6)Gal(b1-4)GlcNAc(b1-3)Gal(b1-4)[Fuc(a1-3)]GlcNAc(b1-3)Gal(b1-4)[Fuc(a1-3)]GlcNAc
In short: (§1)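 Glycan array data came from 3228 arrays in the Consortium for Functional Glycomics database, and only arrays with an available protein sequence were kept. Glycan names were put into IUPAC-condensed notation, and columns mapping to the same glycan were averaged. The binding signal is a within-array Z-score, averaged across arrays of one protein sequence run at different concentrations or buffers and across linkers. A negative Z-score can be read as non-binding.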

[2] = target: Neu5Ac(a2-6)Gal(b1-4)GlcNAc(b1-3)GalNAc
In short: as §1

[3] = target: Neu5Ac(a2-6)Gal(b1-4)GlcNAc6S
In short: as §1

[4] = target: Neu5Ac(a2-6)GalNAc
In short: as §1

[5] = target: Neu5Ac(a2-6)GalNAc(b1-4)GlcNAc
In short: as §1

[6] = target: Neu5Ac(a2-6)GlcNAc(b1-4)GlcNAc
In short: as §1

[7] = target: Neu5Ac(a2-6)GlcNAc(b1-4)GlcNAc(b1-4)GlcNAc
In short: as §1

[8] = target: Neu5Ac(a2-8)Neu5Ac
In short: as §1

[9] = target: Neu5Ac(a2-8)Neu5Ac(a2-3)Gal(b1-4)Glc
In short: as §1

[10] = target: Neu5Ac(a2-8)Neu5Ac(a2-3)[GalNAc(b1-4)]Gal(b1-4)Glc
In short: as §1

[11] = target: Neu5Ac(a2-8)Neu5Ac(a2-8)Neu5Ac
In short: as §1

[12] = target: Neu5Ac(a2-8)Neu5Ac(a2-8)Neu5Ac(a2-3)Gal(b1-4)Glc
In short: as §1

[13] = target: Neu5Ac(a2-8)Neu5Ac(a2-8)Neu5Ac(a2-3)[GalNAc(b1-4)]Gal(b1-4)Glc
In short: as §1

[14] = target: Neu5Ac(a2-8)Neu5Ac(a2-8)Neu5Ac(a2-8)Neu5Ac(a2-3)[GalNAc(b1-4)]Gal(b1-4)Glc
In short: as §1

[15] = target: Neu5Ac(b2-6)Gal(b1-4)GlcNAc
In short: as §1

[16] = target: Neu5Ac(b2-6)GalNAc
In short: as §1

[17] = target: Neu5Ac9Ac(a2-3)Gal(b1-3)GlcNAc
In short: as §1

[18] = target: Neu5Ac9Ac(a2-3)Gal(b1-4)GlcNAc
In short: as §1

[19] = target: Neu5Ac9Ac(a2-6)Gal(b1-4)GlcNAc
In short: as §1

[20] = target: Neu5Gc(a2-3)Gal(b1-3)GlcNAc
In short: as §1

[21] = target: Neu5Gc(a2-3)Gal(b1-3)[Fuc(a1-4)]GlcNAc
In short: as §1

[22] = target: Neu5Gc(a2-3)Gal(b1-4)Glc
In short: as §1

[23] = target: Neu5Gc(a2-3)Gal(b1-4)GlcNAc
In short: as §1

[24] = target: Neu5Gc(a2-3)Gal(b1-4)[Fuc(a1-3)]GlcNAc
In short: as §1

[25] = target: Neu5Gc(a2-6)Gal(b1-4)GlcNAc
In short: as §1

[26] = target: Neu5Gc(a2-6)GalNAc
In short: as §1

[27] = target: Neu5Gc(b2-6)Gal(b1-4)GlcNAc
In short: as §1

B1: Sialidase (Vibrio cholerae), P37060 (protein)
chain: GAMALFDYNATGDTEFDSPAKQGWMQDNTNNGSGVLTNADGMPAWLVQGIGGRAQWTYSLSTNQHAQASSFGWRMTTEMKVLSGGMITNYYANGTQRVLPIISLDSSGNLVVEFEGQTGRTVLATGTAATEYHKFELVFLPGSNPSASFYFDGKLIRDNIQPTASKQNMIVWGNGSSNTDGVAAYRDIKFEIQGDALNGSMALFDYNATGDTEFDSPAKQGWMQDNTNNGSGVLTNADGMPAWLVQGIGGRAQWTYSLSTNQHAQASSFGWRMTTEMKVLSGGMITNYYANGTQRVLPIISLDSSGNLVVEFEGQTGRTVLATGTAATEYHKFELVFLPGSNPSASFYFDGKLIRDNIQPTASKQNMIVWGNGSSNTDGVAAYRDIKFEIQGDLQALGMALFDYNATGDTEFDSPAKQGWMQDNTNNGSGVLTNADGMPAWLVQGIGGRAQWTYSLSTNQHAQASSFGWRMTTEMKVLSGGMITNYYANGTQRVLPIISLDSSGNLVVEFEGQTGRTVLATGTAATEYHKFELVFLPGSNPSASFYFDGKLIRDNIQPTASKQNMIVWGNGSSNTDGVAAYRDIKFEIQGD
[1]
  glycan array binding signal (z-score): -0.466
[2]
  glycan array binding signal (z-score): -0.516
[3]
  glycan array binding signal (z-score): -0.611
[4]
  glycan array binding signal (z-score): 0.651
[5]
  glycan array binding signal (z-score): 0.49
[6]
  glycan array binding signal (z-score): -0.331
[7]
  glycan array binding signal (z-score): 2.61
[8]
  glycan array binding signal (z-score): 1.72
[9]
  glycan array binding signal (z-score): 1.18
[10]
  glycan array binding signal (z-score): -0.257
[11]
  glycan array binding signal (z-score): 0.113
[12]
  glycan array binding signal (z-score): -0.628
[13]
  glycan array binding signal (z-score): -0.647
[14]
  glycan array binding signal (z-score): 1.23
[15]
  glycan array binding signal (z-score): -0.644
[16]
  glycan array binding signal (z-score): 0.272
[17]
  glycan array binding signal (z-score): 1.17
[18]
  glycan array binding signal (z-score): 0.147
[19]
  glycan array binding signal (z-score): 0.26
[20]
  glycan array binding signal (z-score): -0.668
[21]
  glycan array binding signal (z-score): -0.58
[22]
  glycan array binding signal (z-score): 0.129
[23]
  glycan array binding signal (z-score): -0.649
[24]
  glycan array binding signal (z-score): -0.397
[25]
  glycan array binding signal (z-score): -0.14
[26]
  glycan array binding signal (z-score): -0.564
[27]
  glycan array binding signal (z-score): -0.088
